Source: PubChem BioAssay AID1508642 (National Center for Advancing Translational Sciences (NCATS), 2021)
Out of some 43,000 compounds screened, about 200 (0.47%) were called active. Roughly 12% stayed inconclusive and do not appear here. Calls follow the shape of the dose curve; as a rule, active = well fitted cell-killing curve with a large enough effect; inconclusive = small, poorly fitted or top-dose-only effect, or effect the other way; inactive = flat fitted curve, though single readings scatter. The list shows a part of the results.

Assay: Cell viability qHTS assay in S16 Pmp22-F2sN cells; also: nearly all actives have a fitted effect of over 65% in size
Conditions: S16 Pmp22-F2sN Schwann cells viability, CellTiter-Glo, 24 h; series mostly up to 57.5 µM; activity change, negative = cytotoxicity: at the top concentration
In short: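 Used to flag compounds lowering reporter output through toxicity, this quantitative HTS measures ATP-based CellTiter-Glo luminescence in S16 Pmp22-F2sN Schwann cells after 24 h compound exposure at 37C.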
% is scaled to controls: 0 for no effect and ±100 for the full control effect.

Compound	activity change, negative = cytotoxicity
CCOc1ccc(NC(=O)Cn2cnc3c(oc4ccccc43)c2=O)cc1	inactive: 0.719%
CN1C(=O)Cc2cc(S(=O)(=O)CCC(=O)N3CCN(c4cccc(Cl)c4)CC3)ccc21	inactive: -2%
COc1cccc(NS(=O)(=O)c2cc3c4c(c2)C(C)C(=O)N4CCC3)c1 (configuration not stated)	inactive: -2.71%
Cc1cc(C)c(NC(=O)Cn2nnc(C(=O)Nc3ccc(F)cc3F)c2N)c(C)c1	inactive: -2.49%
COc1ccc(-c2cc(OC(=O)c3cccc(C)c3)c3c(C)oc(C)c3c(=O)c2)cc1	inactive: 9.72%
CC(=O)Nc1ccc(NC(=O)c2c(C)nn(-c3ccccc3)c2-n2cccc2)cc1	inactive: -14.4%
Cc1ccc(CNC(=O)c2ccc3c(c2)nc2n3CCCC2)cc1	inactive: -4.7%
Cc1cc(C)n(-c2nc(C)c(C)c(=O)n2CC(=O)Nc2ccc(Cl)c(Cl)c2)n1	inactive: 4.93%
COc1ccc(-c2nnc(SCC(=O)Nc3cccc(Cl)c3C)nc2-c2ccc(OC)cc2)cc1	inactive: 0.546%
COc1ccc(NC(=O)CCNS(=O)(=O)c2ccc3c(c2)CCN3C(=O)C2CC2)cc1Cl	inactive: -24.8%
CCOC(=O)c1cc(-c2ccccc2)n(CCCC(=O)Nc2ccc(C)cc2Cl)c1C	inactive: -3.41%
COc1cccc(NC(=O)c2nnn(Cc3ccc(OC)c(Br)c3)c2N)c1	inactive: -6.11%
COc1cc(NC(=O)c2cc3ccc4cccnc4c3[nH]2)cc(OC)c1OC	inactive: 5.19%
COc1ccccc1N1CCN(S(=O)(=O)CCNC(=O)C2CC(=O)N(c3ccccc3)C2)CC1 (configuration not stated)	inactive: -0.473%
CC(Nc1ccc(-c2nc(-c3ccco3)no2)cc1[N+](=O)[O-])c1ccccc1 (configuration not stated)	inactive: 6.56%
CC(C)(C)C(=O)Nc1cccc(C(=O)OCc2cc(=O)n3nc(C4CC4)sc3n2)c1	inactive: 4.93%
Cc1ccccc1NC(=O)CCNC(=O)Cn1ccc2ccccc2c1=O	inactive: 7.89%
Cc1ccc(NC(=O)N2CCN(Cc3nc4ccc(C)cc4o3)CC2)c(Cl)c1	inactive: 24.1%
CCOC(=O)c1ccc(NC(=O)CSc2nc(-c3cccs3)cc(C(F)(F)F)c2C#N)cc1	inactive: 3.41%
CCS(=O)(=O)c1nc(S(=O)(=O)c2ccc(C)cc2)c(NCC(C)C)s1	inactive: -9.96%
CCOC(=O)N1CCc2c(sc(NCc3sccc3C)c2C(=O)Nc2cc(Cl)ccc2OC)C1	inactive: 2.46%
CCC(=O)N1CCc2cc(CNC(=O)c3ccc(C#N)cc3)ccc21	inactive: 10.7%
CC(NC(=O)c1cc2ccccc2o1)c1ccccc1 (configuration not stated)	inactive: 4.25%
CCc1ccc(S(=O)(=O)c2cn(C)c3cc(F)c(F)cc3c2=O)cc1	inactive: -17.7%

Compound	activity change, negative = cytotoxicity
Cc1ccc(NC(=O)Cn2c(-c3nonc3N)nc3ccccc32)cc1C	inactive: 0.548%
COc1ccccc1CN1CCN(C2CCN(C(=O)Nc3ccccc3)CC2)C(=O)C1=O	inactive: 2.68%
CCOc1ccc(NC(=O)CSC2=Nc3ccccc3C3=NC(Cc4ccccc4)C(=O)N23)cc1 (configuration not stated)	inactive: -1.64%
COc1ccc(-c2nc3sc(CCNC(=O)C(=O)Nc4ccc(C)c(F)c4)c(C)n3n2)cc1	inactive: 1.26%
CCCn1nc(NC(=O)c2cccc(Cl)c2)c2cc3cccc(C)c3nc21	inactive: 2.06%
COc1ccc(Nc2nc3ccccc3nc2NS(=O)(=O)c2ccc(Cl)cc2)cc1OC	inactive: -25.1%
COc1ccccc1CCNC(=O)C(=O)NCC(c1ccco1)S(=O)(=O)c1ccccc1 (configuration not stated)	inactive: -1.27%
CC(=O)Nc1ccc(NC(=O)c2cnn(-c3ccccc3)c2C2CCN(C(=O)OC(C)(C)C)CC2)cc1	inactive: 1.92%
CC(C)c1cnc2c(c1SCC(=O)O)c(=O)n(C)c(=O)n2C	inactive: 3.48%
COc1cccc(-c2nc(SCc3ccc(C)cc3)n3[nH]c(=O)cc3n2)c1	inactive: 18.9%
O=[N+]([O-])c1ccc(S(=O)(=O)N2CCn3cccc3C2c2ccccc2F)cc1 (configuration not stated)	inactive: -1.97%
CC(NC(=O)C1CCN(S(=O)(=O)c2ccc3c(c2)oc(=O)n3C)CC1)c1ccccc1 (configuration not stated)	inactive: -13.5%
CCOC(=O)c1c(C)oc2ncnc(N3CCN(c4ccccc4)CC3)c12	inactive: -0.138%
Cc1ccc(C)c(N2CCN(c3nc4ccc(Cl)cc4n4cnnc34)CC2)c1	inactive: 5.47%
Cc1ccc(S(=O)(=O)NCCc2csc3nc(-c4ccccc4F)nn23)cc1C	inactive: 0.752%
CN(C(=O)c1c2c(nc3ccccc13)C(=O)N(C1CCCCC1)C2)c1ccc(F)cc1	inactive: -16.9%
Cc1ccc(-c2cc3c(n2-c2ccc(F)cc2)CC(C)(C)CC3=O)cc1	inactive: 3.21%
Cc1ccccc1OCc1nnc(SCc2cc(=O)c3ccc(C)c(C)c3[nH]2)n1C	inactive: -28.1%
COc1ccccc1-c1nc(S(=O)(=O)c2ccccc2)c(N2CCC(C)CC2)o1	inactive: -29.5%
COc1ccc(NC(=O)Cn2c(=O)n(Cc3ccccc3)c(=O)c3oc4ccccc4c32)cc1Cl	inactive: -14.2%
Cc1ccc(C)c(-n2cc(-c3ccccc3)nc2SCC(=O)Nc2ccccc2)c1	inactive: 2.32%
Cc1nc(N2CCCC2)ncc1C(=O)N1CCN(c2ccc(Cl)cc2)CC1	inactive: -9.03%
CCOC(=O)C(=O)Nc1nnc2n1CCS2	inactive: -2.71%
